Test results from PubChem BioAssay (NCATS).
Where “and” joins values, the source holds several entries; their conditions need not be identical. Equal entries are not always repeated. Inconclusive results, whose numbers are uncertain, are shown with a selection of clear calls. For some of these results: A potency beside an inconclusive call is a rough fit, not a confirmed value. For some of these results: “Side channel” marks fits to a control or component signal instead of the main read-out. Calls of active or inactive are those of the source. Unless noted, calls come from the whole dose curve; as a rule, active = well fitted curve in the direction sought with a large enough effect; inconclusive = small, poorly fitted or top-dose-only effect, or another doubt; inactive = no such curve, though single readings can be large; an effect the other way counts as inactive or inconclusive.

Legend:
[1] = target: Estrogen receptor (Homo sapiens) (UniProt P03372); experiment: qHTS assay for small molecule agonists of estrogen receptor alpha signaling (AID 588514; calls by dose curve;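 note: 0% = vehicle only and 100% = reference agonist; nearly all actives have a fitted effect of over 70% in size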); conditions: ER-alpha-UAS-bla HEK293, beta-lactamase ratio, 18 h; activation: at 76.8 µM (top of the series), percent of full estradiol response, vehicle zero
How it was run: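 Fluorescence from CCF4 cleavage reports ER-alpha-driven beta-lactamase expression in HEK 293 cells treated 18 hrs at 37 C. Data normalized to 17-beta-estradiol (20 nM) and DMSO, fitted to Hill equation.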

[2] = target: Peroxisome proliferator-activated receptor gamma (Homo sapiens) (UniProt P37231); experiment: qHTS assay for small molecule antagonists of peroxisome proliferator-activated receptor gamma signaling (AID 588537; active = well fitted inhibition curve with a large enough effect in the signal ratio, with a control signal flat, not every such curve was filed as active; inconclusive = small, poorly fitted or top-dose-only effect, or effect the other way, or a change in a side signal; the % refers to the signal ratio;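 note: reporter cells co-stimulated with 50 nM rosiglitazone agonist during compound treatment; % of control where 0% means no effect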); conditions: HEK293 PPARg-UAS-bla, beta-lactamase ratio, antagonist mode
How it was run: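 Cell-based beta-lactamase assay; GW9662 served as the antagonist control. Stimulation used rosiglitazone, final 50 nM, 16 h, 37 C.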

[3] = qHTS assay for small molecule agonists of the antioxidant response element (ARE) signaling pathway (AID 651741; active = well fitted activation curve with a large enough effect in the signal ratio; inconclusive = small, poorly fitted or top-dose-only effect, or effect the other way, or a change in a side signal; the % refers to the signal ratio; note: potency is the fitted concentration of half-maximal effect; for activation: % of control where 0% means no effect); conditions: HepG2 ARE-bla reporter, beta-lactamase FRET ratio, 16 h; activation: at 96 µM (top of the series) unless noted
How it was run: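 Agonist activity is measured as ARE-driven beta-lactamase expression in a stable HepG2 reporter line, using 16 h compound treatment at 37 C and a FRET substrate fluorescence readout after 2 h.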

[4] = MultiTox-Fluor Cytotoxicity Assay - LYMP1-001 - Live Cells (AID 947); note: potency is the fitted concentration of half-maximal effect
[5] = Cell Viability - LYMP2-021 (AID 974);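 note: compound exposure lasts 24 hours at 37 °C; nearly all actives have a fitted effect of over 55% in size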; note: potency is the fitted concentration of half-maximal effect; for activity change, negative = cytotoxicity: % is set by controls: 0 for no effect and ±100 for the full control effect
How it was run: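 In qHTS format, compounds are tested against 2500 lymphoblastoid cells per well for 24 h; viable cell number is inferred from ATP-driven luciferase light, and Hill-equation fitting yields AC50 values.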

[6] = Cell Viability - LYMP2-022 (AID 987); note: nearly all actives have a fitted effect of over 55% in size; note: potency is the fitted concentration of half-maximal effect
How it was run: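 In this qHTS cytotoxicity screen, compound titrations were incubated 24 hr at 37 C with human lymphoblastoid cells in complete medium. Luciferase-based ATP luminescence provided the viability signal.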

[7] = target: Peroxisome proliferator-activated receptor delta (Homo sapiens) (UniProt Q03181); experiment: qHTS assay for small molecule antagonists of peroxisome proliferator-activated receptor delta signaling (AID 588535; active = well fitted inhibition curve with a large enough effect in the signal ratio, with a control signal flat, not every such curve was filed as active; inconclusive = small, poorly fitted or top-dose-only effect, or effect the other way, or a change in a side signal; inactive = no such curve, though single readings can be large or run the other way; the % refers to the signal ratio); conditions: HEK293T PPARd-UAS-bla, beta-lactamase FRET ratio, 18 h; activity change, negative = inhibition: at 76.7 µM (top of the series) unless noted
How it was run: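 Antagonist-mode qHTS using GeneBLAzer PPAR-delta-UAS-bla HEK293T cells; compound exposure 18 hrs at 37 C over a titration. Ratiometric CCF4 fluorescence at 460/530 nm; concentration-response points fitted to the Hill equation.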

[8] = target: Tumor necrosis factor (Homo sapiens) (UniProt P01375); experiment: qHTS assay to identify small molecules that stimulate Tumor Necrosis Factor-alpha (TNF-alpha) secretion (AID 651757; active = well fitted curve in the direction sought with a large enough effect in the signal ratio; inconclusive = small, poorly fitted or top-dose-only effect, or a change in a side signal; inactive = no such curve, though single readings can be large or run the other way; the % refers to the signal ratio; note: 0% is about no effect); conditions: Human cells, HTRF 665/615 ratio; activation (TNF-alpha secretion): at 92.2 µM (top of the series)
How it was run: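 Using 3000 THP-1 cells per well, compounds and controls were applied for 17 hrs at 37 C. Detection followed with two labeled anti-TNF-alpha antibodies (cryptate donor, XL665 acceptor) for 3 hr at room temperature, measured by TR-FRET.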

[9] = qHTS assay to identify small molecules that stimulate interleukin-8 (IL-8) secretion (AID 651758; active = well fitted activation curve with a large enough effect in the signal ratio; inconclusive = small, poorly fitted or top-dose-only effect, or effect the other way, or a change in a side signal; the % refers to the signal ratio; note: potency is the fitted concentration of half-maximal effect; for activation: 0% is about no effect); conditions: HTRF ratio (665/615); activation: at 92.2 µM (top of the series)
How it was run: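 Secreted IL-8 measured homogeneously by TR-FRET (two labelled anti-IL-8 antibodies, 1-3 h at room temperature) after a 16 h, 37 C compound treatment of THP-1 cells at 2000 cells/well.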

[10] = qHTS assay for small molecule agonists of the antioxidant response element (ARE) signaling pathway measured by Nrf2-dependant transcriptional activity (AID 720636; active = well fitted curve in the direction sought with a large enough effect in the repeat runs; inconclusive = weak or mixed curves; inactive = no such curve, though single readings can be large; an effect the other way counts as inactive or inconclusive; note: potency is the fitted concentration of half-maximal effect)
How it was run: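 Nrf2-dependent transcription is measured in ARE-luc HepG2 cells: compound is applied for 16 hr at 37 C after a 6 hr attachment period, and luciferase activity is quantified by luminescence using ONE-Glo.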

[11] = Cell Viability - LYMP2-001 (AID 921); conditions: LYMP2-001 lymphoblastoid cell viability; activity change, negative = cytotoxic: at 92.2 µM (top of the series); note: potency is the fitted concentration of half-maximal effect; nearly all actives have a fitted effect of over 70% in size
How it was run: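 Human lymphoblastoid cells (Coriell), 2500 per well, were preincubated 5 hr at 37 C, then exposed to compounds in complete medium for 24 hr at 37 C. Cellular ATP was read by CellTiter-Glo luminescence; AC50 from Hill fits of concentration-response data.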

[12] = Cell Viability - LYMP2-009 (AID 968); note: potency is the fitted concentration of half-maximal effect; nearly all actives have a fitted effect of over 55% in size
[13] = Cell Viability - LYMP2-017 (AID 972); note: potency is the fitted concentration of half-maximal effect; nearly all actives have a fitted effect of over 55% in size
How it was run: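 In this qHTS format, lymphoblastoid cells in complete medium receive test compound for a day at 37 C before ATP content is quantified by luciferase luminescence. Reported AC50 figures come from standard Hill-equation curve fitting.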

[14] = Cell Viability - LYMP2-010 (AID 981)
How it was run: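 This 24 hr viability screen uses LYMP2-010 lymphoblastoid cells, quantifies ATP via luciferase luminescence, and derives AC50 from Hill fits of qHTS concentration-response data.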

[15] = Cell Viability - LYMP2-012 (AID 982); conditions: LYMP2-012 lymphoblastoid cell viability qHTS; activity change, negative = cytotoxicity: at 92.2 µM (top of the series)
[16] = Cell Viability - LYMP2-016 (AID 984)
How it was run: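 Human lymphoblastoid cells (LYMP2-016), 2500/well in complete medium, preincubated 5 hr at 37 C, then compound-treated 24 hr at 37 C. Intracellular ATP read by CellTiter-Glo luminescence after 30 min at room temperature; AC50 from Hill-equation concentration-response fits.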

[17] = Cell Viability - LYMP2-020 (AID 986); conditions: activity change, negative = viability loss: at 92.2 µM (top of the series)
How it was run: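 Cells at 2500 per well receive a 24 hr compound exposure at 37 C. Viability is measured as ATP-dependent luciferase luminescence, with AC50 modeled from qHTS concentration-response curves.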

[18] = Cell Viability - LYMP2-024 (AID 988); note: potency is the fitted concentration of half-maximal effect; nearly all actives have a fitted effect of over 60% in size
How it was run: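 Cells at 2500 per well received compound for 24 hr after a 5 hr settling period. Viability was scored by CellTiter-Glo luminescence, with AC50 from Hill fits.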

[19] = target: Glucocorticoid receptor (Homo sapiens) (UniProt P04150); experiment: qHTS assay for small molecule agonists of glucocorticoid receptor signaling (AID 588532; active = well fitted curve in the direction sought with a large enough effect in the signal ratio, with a control signal flat; inconclusive = small, poorly fitted or top-dose-only effect, or a change in a side signal; inactive = no such curve, though single readings can be large or run the other way; the % refers to the signal ratio; note: potency is the fitted concentration of half-maximal effect); conditions: HeLa MMTV-bla, beta-lactamase ratio, agonist, 18 h; activation: stronger effect = higher value, percent of dexamethasone control, DMSO zero
How it was run: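 Quantitative HTS using CellSensor MMTV-bla HeLa cells in charcoal/dextran-treated serum; compounds tested up to 92 uM. After 18 h at 37 C, CCF4 dye reported reporter induction.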

[20] = target: Thyroid hormone receptor beta (Homo sapiens) (UniProt P10828); experiment: qHTS assay for small molecule antagonists of thyroid hormone receptor beta signaling (AID 588547; active = well fitted inhibition curve with a large enough effect in the signal ratio, with a control signal flat, not every such curve was filed as active; inconclusive = small, poorly fitted or top-dose-only effect, or effect the other way, or a change in a side signal; the % refers to the signal ratio; note: potency is the fitted concentration of half-maximal effect); conditions: TR-UAS-bla HEK293, beta-lactamase ratio, antagonist mode, 18 h
How it was run: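 Inhibition of T3-driven (0.4nM final) beta-lactamase reporter activity was measured over 0.59 nM to 92 uM compound after 18 h at 37 C. The cells were GripTite HEK293 TR-UAS-bla in charcoal/dextran-stripped serum, with CCF4 ratio read-out and IC50 from Hill fits.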

[21] = target: Cytochrome P450 3A4 (Homo sapiens) (UniProt P08684); experiment: qHTS Assay for Inhibitors and Substrates of Cytochrome P450 3A4 (AID 884); note: % is set by controls: 0 for no effect and ±100 for the full control effect; nearly all actives have a fitted effect of over 50% in size
How it was run: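 Luminescent readout of luciferin produced by CYP3A4 (20 nM) dealkylation of Luciferin-PPXE, 25 uM (its KM). NADPH-driven reaction ran 60 min at RT after 10 min compound preincubation; data scaled to 57 uM ketoconazole as 100% inhibition.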

[22] = target: Thyroid hormone receptor beta (Homo sapiens) (UniProt P10828); experiment: qHTS assay for small molecule agonists of thyroid hormone receptor beta signaling (AID 588545; calls by dose curve); conditions: TR-UAS-bla GripTite HEK 293, beta-lactamase ratio, agonist mode, 18 h; activation: at 76.7 µM, percent of T3 response, DMSO as zero
How it was run: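 HEK 293 TR-UAS-bla; agonist mode; 18 hrs, 37 C; CCF4, ex 405/em 460 and 530 nm; norm. T3 10 nM = 100%, DMSO = 0%; Hill fit → EC50, efficacy.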

[23] = activity, negative = inhibition: at 76.8 µM (top of the series)
Tags give direction and shape of the fitted curve or compound fluorescence and quenching.

Sequence of UniProt P10828 (P10828 whole entry, looked up): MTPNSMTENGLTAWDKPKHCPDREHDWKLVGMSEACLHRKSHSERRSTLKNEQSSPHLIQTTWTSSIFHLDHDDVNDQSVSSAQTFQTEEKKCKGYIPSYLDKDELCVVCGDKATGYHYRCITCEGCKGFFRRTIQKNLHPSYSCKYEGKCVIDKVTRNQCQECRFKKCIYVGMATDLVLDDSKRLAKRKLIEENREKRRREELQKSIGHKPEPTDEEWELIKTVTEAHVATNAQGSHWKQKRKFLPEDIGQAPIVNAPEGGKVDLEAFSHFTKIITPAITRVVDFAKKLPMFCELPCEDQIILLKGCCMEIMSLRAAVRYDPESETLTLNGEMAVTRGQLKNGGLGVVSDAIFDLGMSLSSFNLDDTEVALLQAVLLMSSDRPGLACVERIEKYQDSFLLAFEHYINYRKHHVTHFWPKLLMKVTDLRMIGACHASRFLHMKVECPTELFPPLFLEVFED
Sequence of UniProt Q03181 (Q03181 whole entry, looked up): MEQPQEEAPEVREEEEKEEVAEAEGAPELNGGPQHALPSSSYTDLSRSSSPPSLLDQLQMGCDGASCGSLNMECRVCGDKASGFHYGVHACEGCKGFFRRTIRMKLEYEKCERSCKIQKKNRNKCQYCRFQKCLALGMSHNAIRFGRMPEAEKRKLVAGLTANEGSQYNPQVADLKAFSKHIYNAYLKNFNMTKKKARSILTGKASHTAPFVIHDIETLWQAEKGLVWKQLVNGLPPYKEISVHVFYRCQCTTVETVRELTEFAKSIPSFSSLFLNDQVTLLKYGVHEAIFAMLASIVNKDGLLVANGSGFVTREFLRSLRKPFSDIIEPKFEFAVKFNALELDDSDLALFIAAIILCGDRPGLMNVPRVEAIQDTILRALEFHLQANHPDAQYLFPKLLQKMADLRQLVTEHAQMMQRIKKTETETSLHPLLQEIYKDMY
Sequence of UniProt P03372 (P03372 whole entry, looked up): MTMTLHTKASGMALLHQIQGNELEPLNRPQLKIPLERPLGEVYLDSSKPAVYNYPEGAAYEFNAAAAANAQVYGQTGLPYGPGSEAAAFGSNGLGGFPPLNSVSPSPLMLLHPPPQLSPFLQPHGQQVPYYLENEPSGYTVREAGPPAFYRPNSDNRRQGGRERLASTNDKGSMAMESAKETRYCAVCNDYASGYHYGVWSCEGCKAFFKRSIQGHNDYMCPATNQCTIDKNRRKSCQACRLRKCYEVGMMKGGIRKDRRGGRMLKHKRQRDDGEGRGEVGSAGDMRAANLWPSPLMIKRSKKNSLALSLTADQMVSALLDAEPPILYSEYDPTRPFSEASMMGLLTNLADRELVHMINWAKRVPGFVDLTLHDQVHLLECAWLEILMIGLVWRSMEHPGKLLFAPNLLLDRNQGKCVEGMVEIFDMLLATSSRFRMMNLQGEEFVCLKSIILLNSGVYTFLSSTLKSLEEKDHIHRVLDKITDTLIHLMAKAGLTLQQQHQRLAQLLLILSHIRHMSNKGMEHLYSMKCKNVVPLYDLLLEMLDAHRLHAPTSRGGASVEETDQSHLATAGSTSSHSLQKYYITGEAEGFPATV
Sequence of UniProt P01375 (P01375 whole entry, looked up): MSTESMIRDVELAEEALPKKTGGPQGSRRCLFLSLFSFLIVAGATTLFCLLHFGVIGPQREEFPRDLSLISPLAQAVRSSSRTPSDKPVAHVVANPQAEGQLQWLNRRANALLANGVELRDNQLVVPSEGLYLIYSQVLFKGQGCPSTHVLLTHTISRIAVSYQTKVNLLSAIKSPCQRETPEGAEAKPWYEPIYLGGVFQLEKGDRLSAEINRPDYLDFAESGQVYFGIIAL
Sequence of UniProt P08684 (P08684 whole entry, looked up): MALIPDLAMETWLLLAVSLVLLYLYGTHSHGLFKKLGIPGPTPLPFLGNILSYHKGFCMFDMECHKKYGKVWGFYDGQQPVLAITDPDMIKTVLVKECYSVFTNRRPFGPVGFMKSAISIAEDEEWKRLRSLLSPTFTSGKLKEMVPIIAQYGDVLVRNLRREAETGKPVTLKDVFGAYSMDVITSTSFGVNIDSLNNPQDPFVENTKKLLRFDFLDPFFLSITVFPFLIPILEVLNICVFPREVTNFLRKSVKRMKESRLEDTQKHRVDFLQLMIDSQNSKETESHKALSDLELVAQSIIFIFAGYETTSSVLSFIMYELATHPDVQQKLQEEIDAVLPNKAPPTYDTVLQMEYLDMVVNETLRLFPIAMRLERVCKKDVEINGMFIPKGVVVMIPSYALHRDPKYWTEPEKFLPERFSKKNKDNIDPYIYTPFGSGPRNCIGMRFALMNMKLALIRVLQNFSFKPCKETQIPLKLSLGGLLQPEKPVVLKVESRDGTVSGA

Nc1cnn(-c2ccccc2)c(=O)c1Cl
inactive: Potency [2, 23]
inconclusive: activation [1] 5.66% | activation [3] 8.2%

Nc1ccc(-c2ccccc2)cc1
inconclusive: Potency [4] 3.16 µM [cytotoxic, full curve, poor fit] | activity change, negative = inhibition [7] -7.64% | Potency [3] 66.8 µM [activator, single point] | activation [9] -2.68% | Potency [10] 23.7 µM [activator, partial curve, poor fit]
inactive: Potency [5] | Potency [6] | Potency [1] | Potency [8]

ClC(Cl)=C(Cl)C(Cl)=C(Cl)Cl
inconclusive: Potency [11] 50.1 µM [cytotoxic, single point] | Potency [12] 79.4 µM [cytotoxic, single point] | Potency [13] 79.4 µM [cytotoxic, single point] | Potency [5] 79.4 µM [cytotoxic, single point] | Potency [14] 79.4 µM [cytotoxic, single point] | Potency [15] 79.4 µM [cytotoxic, single point] | Potency [16] 79.4 µM [cytotoxic, single point] | Potency [17] 79.4 µM [cytotoxic, single point] | Potency [6] 79.4 µM [cytotoxic, single point] | Potency [18] 79.4 µM [cytotoxic, single point] | Potency [19] 79.4 µM [side channel, falling, partial curve, poor fit] | activity, negative = inhibition [2, 23] 9.38% and -1.97% | Potency [20] 0.0014 µM [side channel, falling, full curve, poor fit]
inactive: Potency [1] | Potency [7] | Potency [3] | Potency [9]

CC(O)CCl (configuration not stated)
inactive: Potency [21] | activity, negative = inhibition ([2]; at 76.8 µM (top of the series)) -8.39% | activation [22] -4.49% and -10.4%
active: Potency [3] 54.5 µM
inconclusive: activation [1] 72.2% | activity, negative = inhibition [2, 23] 2.14% | Potency [20] 0.316 µM [side channel, falling, full curve, poor fit] | Potency [9] 75 µM [activator, single point]
